Measured values from PubChem BioAssay AID504842 (National Center for Advancing Translational Sciences (NCATS), 2011).
Among all 330,000 compounds or so, about 100 (0.03%) were called active. Roughly 1% stayed inconclusive and do not appear here. Calls follow the shape of the dose curve; as a rule, active = well fitted inhibition curve with a large enough effect; inconclusive = small, poorly fitted or top-dose-only effect; inactive = flat fitted curve, though single readings scatter. The entries are a selection whose mix differs from that of the whole data set.

Tested on: Chaperonin Mm-Cpn (Methanococcus maripaludis)
Assay: Inhibitors of TCP-1 ring complex (TRiC) of Methanococcus maripaludis (MmCpn): qHTS; also: nearly all actives have a fitted effect of over 80% in size;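 as to Potency: enzyme at 25 nM with ATP substrate at 10 µM during the reaction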
Conditions: purified Mm-Cpn ATPase, ADP Transcreener TR-FRET; series mostly up to 76.9 µM; activity, negative = inhibition: at the top concentration
Source text: The eukaryotic chaperonin TRiC (for TCP-1 ring complex) is an essential and conserved chaperone required for the folding and activation of 10-15% of the proteins encoded by the human genome. […] The TRiC complex consist of two stacked 7-9 membered rings, each containing a central cavity. Substrates are folded within the cavity in an ATP-dependent manner. TRiC is a complex of eight different, essential proteins. As each of the genes encoding the eight subunits is essential for cell viability and no protocol has been developed to over-express this enzyme to high levels. That is why several groups studying the TRiC chaperonin have turned to the archaeal homolog of TRiC, Methanococcus maripaludis (Mm-CPN), and have used this enzyme as a model system for the study of the type II chaperonin family. Small molecule inhibitors of the Mm-CPN enzyme would be extremely useful to study the mechanism of chaperonin activity. Importantly, TRiC and Mm-CPN both require ATP hydrolysis for function. Furthermore, the ATP binding sites are highly conserved among these type II chaperonins. This provides us with an easy, well tested and straightforward assay to identify inhibitors of chaperonin activity. The Mm-CPN assay was developed in 1536-well plate format using the HTRF Transcreener ADP assay kit (Cisbio, Bedford, MA). This assay applied the time resolved fluorescence resonance energy transfer (TR-FRET) principle. ATP in the presence of Mm-CPN is converted to ADP + Pi. An antibody labeled with Eu3+-Cryptate specific and bound to ADP labeled with […] (d2) competes with the unlabeled ADP generated by Mm-CPN. The resulting TR-FRET signal is inversely proportional to the concentration of ADP in the sample. In this assay a reduction in TR-FRET signal is observed with ATP turnover. NIH Chemical Genomics Center [NCGC] NIH Molecular Libraries Probe Centers Network [MLPCN] MLPCN Grant: DA030554-01A1 Assay Submitter (PI): Judith Frydman, Stanford University
Purified Mm-CPN was supplied by the laboratory of Dr. Judith Frydman. Protein samples were stored at -80C as single use aliquots. Protein was thawed in ambient temperature water bath and placed on ice once thawed. Buffer was prepared fresh day of screen. The buffer composition below was used to prepare the working solution of the Mm-CPN protein and ATP substrate. The buffer is comprised of 30 mM TRIS pH 7.4, 100mM KCl, 5mM MgCl2, and 1mM DTT. A final concentration of 25nM Mm-CPN and 10uM ATP per well were used in the screen. Instructions according to the manufacturer were followed for the ADP Transcreener kit. Used 1536 well Greiner white, medium binding (MB), solid bottom plates. Plates were read on the PerkinElmer EnVision plate reader using Excitation = 320 nm and Emission = […], 665 nm. Protocol- 1.Dispense 1.5ul per well of working [Mm-CPN] = 50nM (or 75 ng / well) 2.Spin plate at 1000 rpm for 30 seconds 3.23nl of compound transferred per well 4.Incubate at 37degC for 10 minutes 5.Dispense 1.5ul per well of working [ATP] = 20uM 6.Incubate at 37degC for 30 minutes 7.Dispense 3ul per well of Anti-ADP Cryptate / ADP-d2 mix (prepared as instructed by Cisbio) 8.Incubate at ambient for 30 minutes 9.Read using EnVision
% is scaled to controls: 0 for no effect and ±100 for the full control effect; potency is read from the fitted curve at half-maximal effect.

activity, negative = inhibition, inactive:
COC(=O)C1=C(O)/C(=C\c2ccc(OCC(=O)Nc3ccccc3)cc2)N=C1C 0.849%, [2H]c1c([2H])c([2H])c(-c2nc(N3CCCCCC3)sc2C(=O)c2ccccc2)c([2H])c1[2H] -8.91%, CCN1C(=O)[C@H]2[C@@H](c3ccc(-c4ccc(F)cc4)cc3)N3CCCC[C@@]3(C(=O)OC)[C@H]2C1=O -2.81%, N#C/C(=C/c1ccc(N2CCCC2)c([N+](=O)[O-])c1)c1nc2ccccc2[nH]1 1.56%, O=C(NCC#CCSc1nnc(-c2cccc3ccccc23)o1)c1cccs1 -2.99%, CCN(CC)CCOc1ccc(/C(=C(/Cl)c2ccccc2)c2ccccc2)cc1 0.668%, COC(=O)[C@@H]1C[C@H]1[C@@H](NC(=O)c1ccccc1)c1ccccc1 -12.1%, COC(C[C@H](O)CC(=O)[C@H](C)OCc1ccccc1)OC 0.411%, CCN1C(=NCC2CC2)N[C@@H](c2cccc(C(F)(F)F)c2)C(C(=O)OC)=C1C -7%, COc1ccc([C@@H](OC)[C@@]2(Cc3ccc(O)cc3)N=C(N)N(C)C2=O)cc1 0.515%, C=CC[C@H](CC(=O)N(CCO)Cc1ccccc1)C(=O)NC[C@@H](OC(=O)[C@@H](CC=C)Cc1ccc(F)cc1)c1ccccc1 0.412%, Cc1cccc(N=C2NC(=O)/C(=C/c3cccs3)S2)c1 -10.8%, CCSc1nc2ccccc2n1C(=O)/C=C\c1ccc(OC)c(OC)c1 -17.5%, C=CCC[C@@H](Cc1ccc(F)cc1)C(=O)OC[C@@H]1CCCN1C(=O)[C@@H](CC=C)CC(=O)N[C@@H](CO)Cc1ccccc1 -0.133%, O=C(c1ccccc1)c1sc(N2CCCCCC2)nc1-c1ccccc1 -8.6%, O=C1CCC/C=C/C[C@@H](CC(=O)N(CCO)Cc2ccccc2)C(=O)NC[C@H](c2ccccc2)O1 0.928%, COC(C[C@@H](O)CC(=O)[C@H](C)OCc1ccccc1)OC 2.15%, CC(=O)N1c2ccccc2[C@@H](C)[C@@H]1C 1.02%, CCOC(=O)C1=C(c2ccccc2)O/C(=C(\C(=O)OC)C(F)(F)F)S1 -6.74%

Potency, active:
Cc1cc2ccccc2n1CCNC(=O)c1ccc(S(=O)(=O)N2CCCCC2)cc1 14.1 µM, CC(=NCCCn1ccnc1)c1c(C)[nH]n(-c2ccc([N+](=O)[O-])cc2)c1=O 39.8 µM, COc1ccccc1-c1sc2cc3c(cc2c1C#Cc1ccccn1)OCO3 31.6 µM, C[C@H](CO)N1C[C@H](C)[C@@H](CN(C)C(=O)Nc2ccc(C(F)(F)F)cc2)Oc2c(cccc2N(C)C)C1=O 3.98 µM, Oc1ccc(-c2sc(Nc3ccccc3)n[n+]2-c2ccc(F)cc2)cc1 39.8 µM
